Measured values: the supplement of paper PMC8007513
Where a name gives a salt, the structure may show the parent alone. ± gives the standard error. Out of some 1,300 compounds screened, about 130 (10%) showed an effect of 50% or more. The list shows a part of the results, in another mix than the full data.

Tested on: Trichoderma virens ATCC 9645
Experiment: growth yield (OD600) with compound + IPBC relative to untreated control; higher = less growth inhibition
Details: compound concentration: 100 uM, IPBC concentration: 200 ng/ml
Method in brief: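 Trichoderma virens ATCC 9645 spores, from potato dextrose agar plates grown for 7 days, were brought to 15,000 spores ml^−1 in potato dextrose broth and dispensed as 100 μl aliquots into 96-well plates. Each aliquot received library compounds at 100 μM final, with or without a biocide at 200 ng ml^−1, before growth at 30 °C and OD600 readings on a BioTek EL800 at 40 h and 72 h. Growth is expressed relative to the control containing neither agent and represents means of duplicate screens.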

| Structure (SMILES) | growth yield (40 h) | growth yield (72 h) |
| --- | --- | --- |
| Nc1ccn([C@@H]2O[C@H](CO)[C@@H](O)C2(F)F)c(=O)n1 [Gemcitabine] + CCCCNC(=O)OCC#CI [3-iodo-2-propynyl butylcarbamate (IPBC)] | 105 ± 1.9% | 102.88 ± 0.1% |
| CN1C(=O)CC(c2ccccc2)C1=O (stereo not given) [Phensuximide] + CCCCNC(=O)OCC#CI [3-iodo-2-propynyl butylcarbamate (IPBC)] | 92.9 ± 6.2% | 94.3 ± 4.9% |
| CN(C)CCN(Cc1ccccc1)c1ccccn1 [Tripelennamine hydrochloride] + CCCCNC(=O)OCC#CI [3-iodo-2-propynyl butylcarbamate (IPBC)] | 95 ± 3.5% | 95.2 ± 1.9% |
| CC1CNc2c(cccc2S(=O)(=O)N[C@@H](CCCNC(=N)N)C(=O)N2CC[C@@H](C)C[C@@H]2C(=O)O)C1 (stereo not given in full) [Argatroban] + CCCCNC(=O)OCC#CI [3-iodo-2-propynyl butylcarbamate (IPBC)] | 86.2 ± 4.3% | 84.4 ± 4.7% |
| CC(=O)O[C@@]12CO[C@@H]1C[C@H](O)[C@@]1(C)C(=O)[C@H](O)C3=C(C)[C@@H](OC(=O)[C@H](O)[C@@H](NC(=O)OC(C)(C)C)c4ccccc4)C[C@@](O)([C@@H](OC(=O)c4ccccc4)[C@H]21)C3(C)C [Docetaxel] + CCCCNC(=O)OCC#CI [3-iodo-2-propynyl butylcarbamate (IPBC)] | 118 ± 4.8% | 108 ± 1.5% |
| N=C(N)NC(=O)Cc1c(Cl)cccc1Cl [Guanfacine hydrochloride] + CCCCNC(=O)OCC#CI [3-iodo-2-propynyl butylcarbamate (IPBC)] | 79.9 ± 4.3% | 90.7 ± 3.7% |
| CCC(=O)O[C@@](Cc1ccccc1)(c1ccccc1)[C@@H](C)CN(C)C [Levopropoxyphene napsylate] + CCCCNC(=O)OCC#CI [3-iodo-2-propynyl butylcarbamate (IPBC)] | 85.1 ± 3.2% | 90.6 ± 1.9% |
| CC(=O)[C@H]1CC[C@H]2[C@@H]3CCC4=CC(=O)CC[C@]4(C)[C@H]3CC[C@]12C [Progesterone] + CCCCNC(=O)OCC#CI [3-iodo-2-propynyl butylcarbamate (IPBC)] | 51 ± 3% | 77.5 ± 3.9% |
| CN(C)CC/C=C1/c2ccccc2Sc2ccc(Cl)cc21 [Chlorprothixene hydrochloride] + CCCCNC(=O)OCC#CI [3-iodo-2-propynyl butylcarbamate (IPBC)] | 24.5 ± 7.9% | – |
| COc1ccc2[nH]c([S+]([O-])Cc3ncc(C)c(OC)c3C)nc2n1 (stereo not given) [Tenatoprazole] + CCCCNC(=O)OCC#CI [3-iodo-2-propynyl butylcarbamate (IPBC)] | 99.91 ± 0.48% | 104 ± 0.42% |
| CN(C)CCOC(c1ccccc1)c1ccccc1 [Diphenhydramine hydrochloride] + CCCCNC(=O)OCC#CI [3-iodo-2-propynyl butylcarbamate (IPBC)] | 87.2 ± 2.1% | 94 ± 2.1% |
| C[C@]12CC[C@@H]3c4ccc(O)cc4CC[C@H]3[C@@H]1CC[C@@H]2O [Estradiol-17 beta] + CCCCNC(=O)OCC#CI [3-iodo-2-propynyl butylcarbamate (IPBC)] | 70.68 ± 0.16% | 76.98 ± 1.4e-14% |
| CC[C@@]1(O)C(=O)OCc2c1cc1n(c2=O)Cc2cc3ccccc3nc2-1 [Camptothecine (S,+)] + CCCCNC(=O)OCC#CI [3-iodo-2-propynyl butylcarbamate (IPBC)] | 69.3 ± 1.6% | 81.2 ± 1.7% |
| CC(=O)OC1CN2CCC1CC2 (stereo not given) [Aceclidine Hydrochloride] + CCCCNC(=O)OCC#CI [3-iodo-2-propynyl butylcarbamate (IPBC)] | 80.85 ± 0.79% | 86.84 ± 0.21% |
| CC1=C(/C=C/C(C)=C/C=C/C(C)=C/C(=O)O)C(C)(C)CCC1 [Retinoic acid] + CCCCNC(=O)OCC#CI [3-iodo-2-propynyl butylcarbamate (IPBC)] | 99.1 ± 7.6% | 104 ± 4.2% |
| NC(=O)c1cc[n+](CC2=C(C(=O)[O-])N3C(=O)[C@@H](NC(=O)[C@@H](c4ccccc4)S(=O)(=O)O)[C@H]3SC2)cc1 [Cefsulodin sodium salt] + CCCCNC(=O)OCC#CI [3-iodo-2-propynyl butylcarbamate (IPBC)] | 90.06 ± 0.79% | 95.12 ± 0.52% |
| CC(=O)Oc1ccccc1C(=O)O [Acetylsalicylic acid] + CCCCNC(=O)OCC#CI [3-iodo-2-propynyl butylcarbamate (IPBC)] | 107 ± 4.9% | 104 ± 5.5% |
| N=C(N)NS(=O)(=O)c1ccc(N)cc1 [Sulfaguanidine] + CCCCNC(=O)OCC#CI [3-iodo-2-propynyl butylcarbamate (IPBC)] | 89.6 ± 2.5% | 92.4 ± 2.6% |
| COc1cc2nc(N(C)CCCNC(=O)C3CCCO3)nc(N)c2cc1OC (stereo not given) [Alfuzosin hydrochloride] + CCCCNC(=O)OCC#CI [3-iodo-2-propynyl butylcarbamate (IPBC)] | 89.9 ± 4.8% | 93.8 ± 5.2% |

| Structure (SMILES) | growth yield (40 h) | growth yield (72 h) |
| --- | --- | --- |
| C[N+](C)(C)CCCCCCCCCC[N+](C)(C)C [Decamethonium bromide] + CCCCNC(=O)OCC#CI [3-iodo-2-propynyl butylcarbamate (IPBC)] | 105 ± 6.7% | 101 ± 5.6% |
| C#C[C@]1(OC(C)=O)CC[C@H]2[C@@H]3CCC4=CC(=NO)CC[C@@H]4[C@H]3CC[C@@]21CC (mixture of isomers) [Norgestimate] + CCCCNC(=O)OCC#CI [3-iodo-2-propynyl butylcarbamate (IPBC)] | 113 ± 5.9% | 115 ± 2.8% |
| C[N+]1(C)[C@@H]2CC[C@H]1C[C@@H](OC(=O)C(CO)c1ccccc1)C2 (stereo not given in full) [Methylatropine nitrate] + CCCCNC(=O)OCC#CI [3-iodo-2-propynyl butylcarbamate (IPBC)] | 94.8 ± 4.6% | 95 ± 4% |
| CC(=O)O[C@]1(C(C)=O)CC[C@H]2[C@@H]3C=C(Cl)C4=CC(=O)[C@@H]5C[C@@H]5[C@]4(C)[C@H]3CC[C@@]21C [Cyproterone acetate] + CCCCNC(=O)OCC#CI [3-iodo-2-propynyl butylcarbamate (IPBC)] | 98.8 ± 10% | 102 ± 6.8% |
| Clc1ccc(CO/N=C(\Cn2ccnc2)c2ccc(Cl)cc2Cl)c(Cl)c1 [Oxiconazole Nitrate] + CCCCNC(=O)OCC#CI [3-iodo-2-propynyl butylcarbamate (IPBC)] | 3.49 ± 0.32% | 2.1 ± 0.21% |
| CNC(=O)c1c(I)c(C(=O)NCC(=O)Nc2c(I)c(C(=O)O)c(I)c(C(=O)NCCO)c2I)c(I)c(N(C)C(C)=O)c1I [Ioxaglic acid] + CCCCNC(=O)OCC#CI [3-iodo-2-propynyl butylcarbamate (IPBC)] | 89.4 ± 5.9% | 92.6 ± 1.8% |
| CCCCNc1cc(C(=O)O)cc(S(N)(=O)=O)c1Oc1ccccc1 [Bumetanide] + CCCCNC(=O)OCC#CI [3-iodo-2-propynyl butylcarbamate (IPBC)] | 82.6 ± 0.32% | 96.07 ± 0.63% |
| CC(=O)Oc1ccccc1C(=O)Oc1ccccc1C(=O)O [Acetylsalicylsalicylic acid] + CCCCNC(=O)OCC#CI [3-iodo-2-propynyl butylcarbamate (IPBC)] | 85 ± 1.8% | 89.7 ± 2.2% |
| CC(C)n1c(/C=C/C(O)CC(O)CC(=O)O)c(-c2ccc(F)cc2)c2ccccc21 (stereo not given) [Fluvastatin sodium salt] + CCCCNC(=O)OCC#CI [3-iodo-2-propynyl butylcarbamate (IPBC)] | 13.8 ± 0.48% | 33.9 ± 0.52% |
| NC(=O)OCC(COC(N)=O)c1ccccc1 [Felbamate] + CCCCNC(=O)OCC#CI [3-iodo-2-propynyl butylcarbamate (IPBC)] | 103 ± 3.6% | 97.6 ± 3.9% |
| Cc1ccnc(NS(=O)(=O)c2ccc(N)cc2)n1 [Sulfamerazine] + CCCCNC(=O)OCC#CI [3-iodo-2-propynyl butylcarbamate (IPBC)] | 88.2 ± 6.2% | 90.9 ± 4.7% |
| N=C(N)NCc1cccc(I)c1 [Iobenguane sulfate] + CCCCNC(=O)OCC#CI [3-iodo-2-propynyl butylcarbamate (IPBC)] | 89% | 96.3 ± 1.1% |
| Nc1ccc(S(=O)(=O)Nc2cnc3ccccc3n2)cc1 [Sulfaquinoxaline sodium salt] + CCCCNC(=O)OCC#CI [3-iodo-2-propynyl butylcarbamate (IPBC)] | 105 ± 2.5% | 106.8 ± 0.63% |
| CNC[C@H](O)[C@@H](O)[C@H](O)[C@H](O)CO [Meglumine] + CCCCNC(=O)OCC#CI [3-iodo-2-propynyl butylcarbamate (IPBC)] | 88.6 ± 3.2% | 92.1 ± 1.1% |
| NCCCC(O)(P(=O)(O)O)P(=O)(O)O [Alendronate sodium] + CCCCNC(=O)OCC#CI [3-iodo-2-propynyl butylcarbamate (IPBC)] | 89.9 ± 1.3% | 93.34 ± 0.42% |
| CN(C)CCn1nnnc1SCC1=C(C(=O)O)N2C(=O)[C@@H](NC(=O)Cc3csc(N)n3)[C@H]2SC1 [Cefotiam hydrochloride] + CCCCNC(=O)OCC#CI [3-iodo-2-propynyl butylcarbamate (IPBC)] | 96.4 ± 11% | 97.8 ± 7.5% |
| CC(=O)N[C@@H](CS)C(=O)O [Acetylcysteine] + CCCCNC(=O)OCC#CI [3-iodo-2-propynyl butylcarbamate (IPBC)] | 108 ± 4.5% | 102 ± 1.7% |
| CC(C)N(CCC(C(N)=O)(c1ccccc1)c1ccccn1)C(C)C (stereo not given) [Disopyramide] + CCCCNC(=O)OCC#CI [3-iodo-2-propynyl butylcarbamate (IPBC)] | 90.2 ± 9.8% | 96.1 ± 6.5% |
| CC(=O)O[C@H]1C[C@@]2(C)[C@@H](C[C@@H](O)[C@H]3[C@@]4(C)CC[C@@H](O)[C@@H](C)[C@@H]4CC[C@@]32C)/C1=C(\CCC=C(C)C)C(=O)O [Fusidic acid sodium salt] + CCCCNC(=O)OCC#CI [3-iodo-2-propynyl butylcarbamate (IPBC)] | 109.3 ± 0.64% | 117 ± 1.5% |
